Measurements published in the RNAGym collection of RNA variant scans (doi:10.1093/nar/gkz1192).
The source gives no read counts; variants with many changes may rest on few reads.

B1: CPEB3 Ribozyme (parent)
chain: UAACAGGGGGCCACAGCAGAAGCGUUCACGUCGCAGCCCCUGUCAGAUUCUGGUGAAUCUGCGAAUUCUGCUGUAUAUCUC

Variants of: B1
Test: self-cleavage, relative activity (ratio to wild type); higher = more cleavage; in vitro, sequencing
How it was run: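 Relative activity compares each variant's cleaved/total read fraction with that of the unmutated ribozyme. To get these fractions, barcoded CPEB3 ribozyme libraries from rounds of error-prone PCR were transcribed with T7 RNA polymerase for 5 hours at 37°C and then given 15 min of DNase I treatment before EDTA was added. The RNAs were reverse transcribed with template switching and sequenced on Illumina, and DNA sequencing linked barcodes to variants. A minimum of 5 reads applied, and three batches were averaged.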

Variant	self-cleavage
C12A A15G C39A U43C U60A	0.35
C12A A15U U31C	0.44
C12A A15U U72A	0.59
C12A A18G A28G U66A U78C	0.14
C12A A18G U49A U69C	0.85
C12A A18U U31A	0.49
C12A A18U U78C	0.42
C12A A20U C23U C44A U54C U66C	0.06
C12A A28C A45G	0.4
C12A A28G A47G G52A A65G U78G	0.15
C12A A28U U58A	0.32
C12A C17G A20C A28U	0.28
C12A C40U U54C	0.74
C12A G22C U67A	0.13
C12A U25C A64G	0.33
C12A U26A C40G U43A A57G A65G	0.08
C12A U26A U49G	0.39
C12A U26C U31C U49A G70A	0.08
C12A U26C U31G U43A U49C U54C A64G	0.04
C12A U31C A35U	1.21
C12A U41A A57G U80A	0.31
C12A U41C U60C	0.69
C12A U43C A57G U72C	0.51
C12A U49C C50A	0.93

Variant	self-cleavage
C12G A13G U31A U41C U48C U78A	0.15
C12G A13G U43A A45U U48C U69A	0.05
C12G A13U C29G	0.13
C12G A15C A21U U54G	0.07
C12G A15G U25C C40A	0.06
C12G A18G U54C G73A	0.57
C12G A18U A28U U51C	0.16
C12G A18U A57G U80C	0.16
C12G A20G G30A A35G U74C	0.07
C12G A20U A65G U67A U74A	0.12
C12G A21G A28G C29A U41C U72A	0.02
C12G A21G U26C A47G U54C A56G	0.1
C12G A28G U41C U48C U67C	0
C12G A28U A45G A64G	0.22
C12G C14A U26A A28U C38A G63U	0.05
C12G C17G A28G G61A	0.04
C12G C17G U25C	0.35
C12G C17G U25C U80C	0.44
C12G C23U U80G	0.14
C12G C34A U43C A45G U49C A77G	0.03
C12G U25C U60A U66C	0.14
C12G U26A U43A U48A U49C C68U U80A	0.03
C12G U26C U41A U48C	0.21
C12G U41A A64G U66C U72A	0.05

Variant	self-cleavage
C12G U41G U43C U54C	0.15
C12G U41G U76A	0.31
C12G U43G U60C A64U U80C	0.06
C12G U51A C62U	0.11
C12U A13G A21G U26A A65U	0.04
C12U A13G A35G A47G U67G U80C	0.47
C12U A13G C27G A47G C62G U74C	0.09
C12U A13U A28G U41A A64U A77G U78C	0.05
C12U A13U A45U	1.05
C12U A13U U26C U49C U67C	0.11
C12U A15C A35G U51C	0.67
C12U A15G G33A	0.05
C12U A15G U43C U48C A56U	0.14
C12U A15G U60C	0.18
C12U A15G U67C U72C	0.31
C12U A15U C17U U67C	0.06
C12U A15U C29U A35G	0.59
C12U A18G A21G	0.32
C12U A18G C29G	0.7
C12U A18G G24A A35G A64G U66C U72C	0.1
C12U A18G U26A U31C	0.13
C12U A18G U48C A56U	0.17
C12U A18G U72C	0.94
C12U A18U A21G	0.37

Variant	self-cleavage
C12U A18U U51A U72A	0.34
C12U A18U U54C	0.49
C12U A20G A47G	0.74
C12U A20U C39U U74C	0.46
C12U A20U U41A U43A	0.06
C12U A20U U49C U80C	0.07
C12U A21G A28U	0.9
C12U A21G U26C	0.43
C12U A21U U48C U80C	0.1
C12U A28C U51A	0.82
C12U A28G G53A U69C U72C	0.31
C12U A28G U60C	0.28
C12U A28U U31A A65G	0.28
C12U A35G A64U U66C	0.21
C12U A45U G53A U60A	1.25
C12U A56U U60A	0.36
C12U A56U U60C U67C	0.31
C12U A57G G73A U80C	1.31
C12U A57G U80C	1.16
C12U A75G U78C	1.25
C12U C14U G46U	0.76
C12U C14U U31A	1.15
C12U C17U A45G U58C A65G	0.17
C12U C27A A35U	0.09

Variant	self-cleavage
C12U C40U U72C	1.19
C12U G24A U26C A28G U60A	0.22
C12U G24C A35G A45G A65G U67C	0.12
C12U G30A U31C C39U U78C	0.07
C12U G33A A64G U66C	0.09
C12U U25C A28U U41A U51A U72C	0.14
C12U U25C A28U U48A	0.05
C12U U25C C27A U51C G52U U54G U69C	0.08
C12U U25C U41C U78C	0.23
C12U U25C U60C	0.12
C12U U26A G61A	0.87
C12U U26A U51A A56G C59U	0.42
C12U U26C A45G A56G C71U	0.18
C12U U26C A45U U80C	0.4
C12U U26C U51A	0.69
C12U U31C A35G U43C A57G U69C	0.09
C12U U41C A45G A47U C68G	0.15
C12U U41C U66C U72C U74G A75G	0.94
C12U U43A U48C	0.74
C12U U43A U54A U60C	1.05
C12U U43A U60A	0.54
C12U U43C A56G A65G C71U	0.06
C12U U49C A64G	0.82
C12U U49C U67C	0.38

Variant	self-cleavage
C12U U51A U80C	1.2
C12U U51C A56U A57G G70U	0.42
C12U U58A A64G	0.53
C12U U66C U72C	0.87
C12U U69C A75C A77G	1.12
A13C A15G A18U U43C U51C U69C	0.09
A13C A15G A45G	0.71
A13C A15G C37A A65G U74C	0.19
A13C A15G U41A A64G	0.09
A13C A15G U54A A64G C68A	0.15
A13C A15U A18U U43C U51C U58C U60C	0.07
A13C A15U A65G	0.33
A13C A15U U49C A77G	0.12
A13C A18G U25C A28U C37A U60A	0.07
A13C A18G U66C U72A	0.15
A13C A18U G22A A35G A45G U49C	0.05
A13C A20C C39G A45U	0.15
A13C A20G G22A A28U U43C U54C U72G	0.1
A13C A20G U78C	1.03
A13C A20U A21U U78A	0.26
A13C A21C A35G G36A U48A C79U	0.13
A13C A21G C29U U51G U69A	0.01
A13C A21G G30A A64G U66C	0.21
A13C A21G U43C U60C U80A	0.02

Variant	self-cleavage
A13C A21G U49A G55A U60C	0.06
A13C A28G A35G A64U	0.26
A13C A28G U31C U43C	0.17
A13C A28U U41A	0.27
A13C A35C U43C A65G U69C	0.1
A13C A35G A56U A57G U58A U74C	0.78
A13C A35G U43C U76A	1.26
A13C A35U C40A A45C A56G	0.12
A13C A45G U51A A56G G63A A75U	0.27
A13C A45U U49A A64G	0.13
A13C A56G U72C	0.35
A13C A57U U58A U78A	0.16
A13C C14U U25C U67C C68U	0.22
A13C C17A A18G C29A U51C A75G	0.22
A13C C29U C39G A45C G55A	0.05
A13C C34A C44A U74C	0.24
A13C C38U A45G	0.26
A13C C59A A65G	0.22
A13C G22A C23U U25C A77U U78C	0.09
A13C G36C U69C U72A	0.21
A13C G42C U60C	0.08
A13C U25A A56G U74C	0.1
A13C U25C A28G	0.31
